± gives the standard deviation of the averaged measurements. Some of the results follow.
What follows are sequences tested on PfAP2-LT AP2 domain (GST-tagged) (assay: gcPBM binding intensity (ln(normalized median fluorescence intensity)); higher = stronger DNA binding).
Procedure, shortened: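 Using an Agilent 4 × 180k array, primer-extended double-stranded 36-bp intergenic genomic probes and negative controls were exposed for 1 h to GST-fused P. falciparum DNA-binding domains expressed in E. coli. Binding was carried out in 1× PBS with 1% milk, 0.2 mg/ml BSA, 0.5% salmon testes DNA and 0.03% Triton X-100, and protein was detected with Alexa488 anti-GST antibody and a 488 nm scan. Binding intensity is the highest Masliner-normalised natural-log median intensity across replicate spots of either probe orientation.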

| Sequence | gcPBM binding intensity (ln) |
| --- | --- |
| TATAGAATAATCTATAAACACACAAACACAACAAAA [CACACA_site9374] | 9.23 ± 0.33 |
| TTAGAACTATTTTATACATGCAGTTATTTAATACTT [TGCATGCA_site1039] | 8.68 ± 0.39 |
| TTATAAATATAATTTTGTACATATATATATATATAC [XGTACX_site5064] | 8.78 ± 0.45 |
| AATGGAAATTTTTCTTGTACACATATATGACATGTT [XGTACX_site1691] | 8.86 ± 0.47 |
| TTTTTTTTTACTGCATGTACTTGATGTAAATAAATT [XGTACX_site3045] | 8.74 ± 0.45 |
| AAAAAAATAATCATCACACACGGAGAATGTCCAATA [CACACA_site5305] | 9.35 ± 0.22 |
| TATTTTTTTTTATTTTTTTTTATTTTGTTTTTTTAT [TGCATGCA_negctrl_site315] | 8.54 ± 0.62 |
| ATTAAAATATAAGTCACACATATATATATATATATA [CACACA_site6145] | 9.68 ± 0.057 |
| ATATATTTTCCTTCAAGTACACATATAAATGTGTAT [XGTACX_site6633] | 8.9 ± 0.4 |
| ACATATATTTTTTTTTGTACATATAAATATATATAT [XGTACX_site6491] | 8.78 ± 0.4 |
| AATATAATAATATTTTGTACATATCCTATGTATGAG [XGTACX_site8601] | 8.76 ± 0.35 |
| AACGTAAAACATATCTATCAAAATAAATCATTAATC [TGCATGCA_negctrl_site68] | 8.79 ± 0.41 |
| CACGCACGCAGACACACACACACACGCACATATATA [CACACA_site6303] | 10.2 ± 0.38 |
| ACAACAATTCACTTGATGCACTAACCAAAAAAATAA | 8.78 ± 0.35 |
| CTAAATAACTTAAGGTGTACGTTTCCAATAAAAAAA [XGTACX_site1742] | 8.56 ± 0.49 |
| ACATATAAAATGATGCGTACATATTTGATCATATAC [XGTACX_site153] | 9.03 ± 0.3 |
| GTATATTAATAAACATGTACACAATTTATTTATATT [XGTACX_site1012] | 8.87 ± 0.44 |
| TTTTTTTTTTGAAGTGCATGTTACGATGAAAAAAAA [TGCATGCA_site64] | 8.21 ± 0.3 |
| TTTTTTTTTAAATGTTGTACATTATATTTGTGTATA [XGTACX_site8354] | 8.7 ± 0.46 |
| CGTATGTGCGGACATGCATGCAATATACAAGAAAAA [TGCATGCA_site145] | 9.03 ± 0.38 |
| TGTAGCCTGGAGAAGAGTACATAGTATCTGGTAGCT [XGTACX_site4943] | 8.79 ± 0.49 |
| CCATATAAAATATAAAAACACACGTATATATACATA [CACACA_site1511] | 8.93 ± 0.34 |

| Sequence | gcPBM binding intensity (ln) |
| --- | --- |
| TGTACATATATATAGATATATATAGATATATATATA [CACACA_negctrl_site1678] | 8.91 ± 0.29 |
| ATTCAATCTTTTAATACACACAATTTATTTCAAAAC [CACACA_site835] | 8.65 ± 0.44 |
| ACAAAATGTAGAAAATGTACAAAATTAACAAAAGAA [XGTACX_site5019] | 9.11 ± 0.63 |
| TATCCTAACTTTAGATGTACACAAATAAAAAAAAAA [XGTACX_site4491] | 8.45 ± 0.47 |
| AAAATACAAACAAGTGGTACTGTTTATAAATGGTTG [XGTACX_site1503] | 8.81 ± 0.49 |
| TGTCTTGTAAATTATTGTACTATTTAAAGTATACAA [XGTACX_site7864] | 8.62 ± 0.26 |
| TTGTATATATTTATATGTACATATATTACTTTTGCT [XGTACX_site2449] | 8.94 ± 0.45 |
| AAATAATGGTTAGCTACACACAAAGCATTTTTTGAA [CACACA_site1016] | 8.93 ± 0.48 |
| ATAATATAACAATACGCACACGTATACAAAAAAAAA [CACACA_site5703] | 9.11 ± 0.44 |
| TTTTAAAAAGATCATTAAAAAAAAAAAAAGAACAAA [CACACA_negctrl_site528] | 8.23 ± 0.52 |
| AATAATAAAGATCAATGTACATAATAAAAAAAAAAA [XGTACX_site2692] | 8.84 ± 0.5 |
| TATCATGGGTGTATTTCACACACGGATAATCATTTA [CACACA_site8211] | 9.06 ± 0.4 |
| AATGTTTATTAACATTGTACTTATAATATGTCACAA [XGTACX_site2974] | 8.62 ± 0.41 |
| AAACAACATATATTAATATGTACATATATATAGATA [GTGCAC_negctrl_site229] | 8.94 ± 0.43 |
| AATAATTGTTAAAGCTGTACAATACTTATATAAGAA [XGTACX_site5729] | 8.77 ± 0.45 |
| TTTTTATTGTTATAGTTATAATATATTATTTGATTA [XGTACX_negctrl_site27] | 8.61 ± 0.42 |
| TTTTTTTTTTTTGTAACACACAATAATATAACATTA [CACACA_site3411] | 8.62 ± 0.5 |
| TTATTAAGTAAATCACATTTAATTTTTTTTTTTTTT [CACACA_negctrl_site1280] | 8.2 ± 0.4 |
| CACATATAAATATTAACACACATAATGAGTTATATA [CACACA_site7316] | 8.89 ± 0.41 |
| AAGAAAAAAAAAAAAAGTACATGCAATATGGATCTT [XGTACX_site3106] | 8.93 ± 0.42 |
| TTATACCATATTTATAGTACGTACAAATAAATCAAT [XGTACX_site4975] | 8.72 ± 0.28 |
| CATATATAACAATTCTCACACATAAAAAAAAAAAAT [CACACA_site4564] | 8.85 ± 0.52 |
